The test deals with T1, Slc1-Cub-LexA-VP16 (S. cerevisiae, UniProt P33333 1-303).
T1 construct: Slc1, lysophosphatidic acid acyltransferase of S. cerevisiae; The end of the tag is read from the order of the printed label; also called Slc1 bait (strain YBG2); pTMBV4-SLC1; not shown: Cub-LexA-VP16, C-terminal, kept
T1 sequence (looked up): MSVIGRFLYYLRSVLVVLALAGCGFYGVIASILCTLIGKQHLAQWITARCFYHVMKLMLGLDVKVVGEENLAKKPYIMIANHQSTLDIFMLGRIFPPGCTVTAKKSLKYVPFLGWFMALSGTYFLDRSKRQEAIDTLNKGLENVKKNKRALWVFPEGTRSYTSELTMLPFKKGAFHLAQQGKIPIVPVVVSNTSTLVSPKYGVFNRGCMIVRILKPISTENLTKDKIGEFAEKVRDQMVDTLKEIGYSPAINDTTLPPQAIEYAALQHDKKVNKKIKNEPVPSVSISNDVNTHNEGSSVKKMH
The experiment in a line: two-hybrid; membrane yeast two-hybrid (split ubiquitin) in a Δole1 strain (ole1::NatMX6, derived from NMY51): Slc1-Cub-LexA-VP16 as bait, NubG fusions as prey; growth on SD-W-L-H-A supplemented with 0.5% Tween-80 and β-galactosidase activity of cell extracts.

Results are given in words; binding and its absence hold for the method and conditions named. Some results given as binding are weak or reduced against the parent protein; the word gives no strength. Tags and fused reporters may be left off the sequences shown.

B1: NubG-Dga1 (full-length NubG-Dga1 fusion) (enzyme, S. cerevisiae, UniProt Q08650 1-418, looked up)
chain: MSGTFNDIRRRKKEEGSPTAGITERHENKSLSSIDKREQTLKPQLESCCPLATPFERRLQTLAVAWHTSSFVLFSIFTLFAISTPALWVLAIPYMIYFFFDRSPATGEVVNRYSLRFRSLPIWKWYCDYFPISLIKTVNLKPTFTLSKNKRVNEKNYKIRLWPTKYSINLKSNSTIDYRNQECTGPTYLFGYHPHGIGALGAFGAFATEGCNYSKIFPGIPISLMTLVTQFHIPLYRDYLLALGISSVSRKNALRTLSKNQSICIVVGGARESLLSSTNGTQLILNKRKGFIKLAIQTGNINLVPVFAFGEVDCYNVLSTKKDSVLGKMQLWFKENFGFTIPIFYARGLFNYDFGLLPFRAPINVVVGRPIYVEKKITNPPDDVVNHFHDLYIAELKRLYYENREKYGVPDAELKIVG
notes: Dga1, diacylglycerol acyltransferase of S. cerevisiae; DGA1 amplified from W303 genomic DNA; 418 residues by the printed ranges; also called pNubG-DGA1; pADSL-NubG-DGA1; source: yeast two-hybrid fusion (split ubiquitin prey), from plasmid pADSL-NubG-DGA1 in S. cerevisiae; not shown: NubG, N-terminal, kept
For the molecule B1, the binding entry is “binds”.

The record behind these values is publication PMC10302205, “Saccharomyces cerevisiae Δ9-desaturase Ole1 forms a supercomplex with Slc1 and Dga1” (The Journal of Biological Chemistry, 2023).
